The IC50 comes from the fitted curve, where viability falls to half of the control; fits outside the tested doses are given as limits. AUC, from the same fit, is the share of area under the viability curve across the 256-fold dose range: 1 means no effect, lower means more sensitive. For part of these data: The top dose, if marked as inferred, comes from the curve model; the source does not state it. For part of these data: Drugs with an entry number were screened twice under separate entries, and the two screens often disagree.
Tests used:
Test in all cases: Viability of human cancer cell lines after 72 h of drug (GDSC screen)
PHA-665752 = compound: Cc1[nH]c(/C=C2\C(=O)Nc3ccc(S(=O)(=O)Cc4c(Cl)cccc4Cl)cc32)c(C)c1C(=O)N1CCC[C@@H]1CN1CCCC1 [PHA-665752]; conditions: top dose 2 µM
Description: (§1)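 Human cancer cell lines in 384-well plates, medium with 10% serum, drug for 72 h over a 256-fold dose range (nine 2-fold or five 4-fold steps up to the top dose). Adherent lines were fixed and stained with the nucleic acid dye Syto60, suspension lines read with resazurin; signal relative to control wells, capped at 0 and 100%. One two-parameter sigmoid per drug and line, fitted in a mixed model over all curves with the slope shared within a line.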

YM155 = compound: COCC[n+]1c2c(n(Cc3cnccn3)c1C)C(=O)c1ccccc1C2=O [YM155]; conditions: top dose 5.12 µM
Description: as §1

NSC-207895 = compound: CN1CCN(c2ccc([N+](=O)[O-])c3no[n+]([O-])c23)CC1 [NSC-207895]; conditions: top dose 20 µM; top dose inferred
Description: as §1

JQ1 = compound: Cc1sc2c(c1C)C(c1ccc(Cl)cc1)=N[C@@H](CC(=O)OC(C)(C)C)c1nnc(C)n1-2 [JQ1]
Description: as §1

JNJ-26854165 = compound: c1ccc2c(CCNc3ccc(Nc4ccncc4)cc3)c[nH]c2c1 [JNJ-26854165]; conditions: top dose 10 µM
Description: as §1

OSI-906 = compound: C[C@]1(O)C[C@@H](c2nc(-c3ccc4ccc(-c5ccccc5)nc4c3)c3c(N)nccn32)C1 [OSI-906]; conditions: top dose 2.56 µM; top dose inferred
Description: as §1

FTI-277 = compound: COC(=O)[C@H](CCSC)NC(=O)c1ccc(NC[C@@H](N)CS)cc1-c1ccccc1 [FTI-277]; conditions: top dose 1.024 µM; top dose inferred
Description: as §1

NVP-TAE684 = compound: COc1cc(N2CCC(N3CCN(C)CC3)CC2)ccc1Nc1ncc(Cl)c(Nc2ccccc2S(=O)(=O)C(C)C)n1 [NVP-TAE684]; conditions: top dose 2 µM
Description: as §1

Cyclopamine = compound: CC1=C2C[C@H]3[C@@H](CC=C4C[C@@H](O)CC[C@@]43C)[C@@H]2CC[C@]12O[C@@H]1C[C@H](C)CN[C@H]1[C@H]2C [Cyclopamine]; conditions: top dose 16 µM; top dose inferred
Description: as §1

JNK Inhibitor VIII = compound: CCOc1nc(NC(=O)Cc2cc(OC)ccc2OC)cc(N)c1C#N [JNK Inhibitor VIII]; conditions: top dose 10 µM; top dose inferred
Description: as §1

Belinostat = compound: O=C(/C=C/c1cccc(S(=O)(=O)Nc2ccccc2)c1)NO [Belinostat]; conditions: top dose 20 µM; top dose inferred
Description: as §1

Docetaxel = compound: CC(=O)O[C@@]12CO[C@@H]1C[C@H](O)[C@@]1(C)C(=O)[C@H](O)C3=C(C)[C@@H](OC(=O)[C@H](O)[C@@H](NC(=O)OC(C)(C)C)c4ccccc4)C[C@@](O)([C@@H](OC(=O)c4ccccc4)[C@H]21)C3(C)C [Docetaxel]; conditions: top dose 0.0125 µM
Description: as §1

SB-715992 = compound: Cc1ccc(C(=O)N(CCCN)[C@@H](c2nc3cc(Cl)ccc3c(=O)n2Cc2ccccc2)C(C)C)cc1 [SB-715992]; conditions: top dose 0.128 µM; top dose inferred
Description: as §1

AMG-706 = compound: CC1(C)CNc2cc(NC(=O)c3cccnc3NCc3ccncc3)ccc21 [AMG-706]; conditions: top dose 2 µM; top dose inferred
Description: as §1

CGP-60474 = compound: OCCCNc1cc(-c2ccnc(Nc3cccc(Cl)c3)n2)ccn1 [CGP-60474]; conditions: top dose 0.256 µM; top dose inferred
Description: as §1

[1] = top dose 1 µM, screen: GDSC drug entry 1218, top dose inferred
[2] = top dose 2.56 µM, screen: GDSC drug entry 163

Cell Line | AUC (PHA-665752) | IC50 (PHA-665752) | AUC (YM155) | IC50 (YM155) | AUC (NSC-207895) | IC50 (NSC-207895) | AUC (JQ1; [1]) | IC50 (JQ1; [1]) | AUC (JQ1; [2]) | IC50 (JQ1; [2]) | AUC (JNJ-26854165) | IC50 (JNJ-26854165) | AUC (OSI-906) | IC50 (OSI-906) | AUC (FTI-277) | IC50 (FTI-277) | AUC (NVP-TAE684) | AUC (Cyclopamine) | IC50 (Cyclopamine) | AUC (JNK Inhibitor VIII) | IC50 (JNK Inhibitor VIII) | AUC (Belinostat) | IC50 (Belinostat) | AUC (Docetaxel) | IC50 (Docetaxel) | AUC (SB-715992) | IC50 (SB-715992) | AUC (AMG-706) | IC50 (AMG-706) | AUC (CGP-60474) | IC50 (CGP-60474) | IC50 (NVP-TAE684)
ALL-PO (lymphoblastic leukaemia, suspension) | 0.706 | 496 nM | 0.06 | < 20 nM | 0.735 | 6.12 µM | 0.973 | > 1000 nM | 0.608 | 323 nM | 0.457 | 0.475 µM | 0.889 | > 2560 nM | 0.971 | > 1020 nM | 0.603 | 0.812 | 9.2 µM | 0.91 | > 10 µM | 0.113 | < 78.1 nM | 0.832 | 8.66 nM | 0.736 | 39.6 nM | 0.97 | > 2000 nM | 0.729 | 75.1 nM | 
ALL-SIL (T-cell leukaemia, suspension) | 0.936 | > 2000 nM | 0.42 | 200 nM | 0.847 | 11.7 µM | 0.98 | > 1000 nM | 0.607 | 300 nM |  |  | 0.742 | 699 nM | 0.982 | > 1020 nM | 0.675 | 0.971 | > 16 µM | 0.987 | > 10 µM | 0.154 | 134 nM | 0.775 | 4.25 nM | 0.619 | 16.2 nM | 0.986 | > 2000 nM | 0.763 | 80.2 nM | 355 nM
BB30-HNC (head and neck, adherent) | 0.98 | > 2000 nM | 0.055 | < 20 nM | 0.922 | > 20 µM |  |  | 0.378 | 74.6 nM | 0.808 | 5.03 µM | 0.92 | > 2560 nM | 0.944 | > 1020 nM | 0.765 | 0.92 | > 16 µM | 0.966 | > 10 µM | 0.507 | 1310 nM | 0.505 | 0.805 nM | 0.663 | 22.5 nM | 0.986 | > 2000 nM | 0.644 | 39.6 nM | 715 nM
BB49-HNC (head and neck, adherent) | 0.95 | > 2000 nM | 0.466 | 250 nM | 0.952 | > 20 µM | 0.969 | > 1000 nM | 0.832 | > 2560 nM | 0.847 | > 10 µM | 0.806 | 1990 nM | 0.975 | > 1020 nM | 0.939 | 0.977 | > 16 µM | 0.975 | > 10 µM | 0.703 | 5950 nM | 0.659 | 2.59 nM | 0.97 | > 128 nM | 0.973 | > 2000 nM | 0.7 | 74.6 nM | > 2000 nM
BE-13 (lymphoblastic leukaemia, suspension) | 0.907 | > 2000 nM | 0.021 | < 20 nM | 0.846 | 13.2 µM | 0.984 | > 1000 nM | 0.701 | 564 nM | 0.875 | 8.77 µM | 0.977 | > 2560 nM | 0.984 | > 1020 nM | 0.82 | 0.969 | > 16 µM | 0.987 | > 10 µM | 0.167 | 133 nM | 0.767 | 4.37 nM | 0.697 | 27.5 nM | 0.987 | > 2000 nM | 0.77 | 91.5 nM | 1060 nM
COLO-320-HSR (large intestine, suspension) | 0.978 | > 2000 nM | 0.94 | > 5120 nM | 0.98 | > 20 µM | 0.991 | > 1000 nM | 0.847 | 1530 nM | 0.964 | > 10 µM | 0.695 | 519 nM | 0.989 | > 1020 nM | 0.594 | 0.983 | > 16 µM | 0.992 | > 10 µM | 0.397 | 678 nM | 0.992 | > 12.5 nM | 0.903 | > 128 nM | 0.991 | > 2000 nM | 0.663 | 42.3 nM | 218 nM
COR-L88 (small cell lung carcinoma, adherent) | 0.972 | > 2000 nM |  |  | 0.788 | 10.6 µM | 0.983 | > 1000 nM | 0.955 | > 2560 nM | 0.941 | > 10 µM | 0.979 | > 2560 nM | 0.985 | > 1020 nM | 0.985 | 0.941 | > 16 µM | 0.986 | > 10 µM | 0.39 | 585 nM | 0.952 | > 12.5 nM | 0.875 | > 128 nM | 0.985 | > 2000 nM | 0.872 | > 256 nM | > 2000 nM
ES8 (Ewing sarcoma, adherent) | 0.98 | > 2000 nM | 0.027 | < 20 nM | 0.988 | > 20 µM | 0.977 | > 1000 nM | 0.575 | 252 nM | 0.766 | 3.43 µM | 0.861 | 1920 nM | 0.967 | > 1020 nM | 0.804 | 0.967 | > 16 µM | 0.944 | > 10 µM | 0.215 | 198 nM | 0.529 | 0.93 nM | 0.551 | 10.9 nM | 0.933 | > 2000 nM | 0.745 | 75.4 nM | 911 nM
